Each structure is given as a SMILES string. Several values for one entry are separate records, joined by “and”; a condition that tells them apart may be missing. Identical values can stand only once.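 48-hour exposure; five concentrations; linearly interpolated endpoints. At the GI50, growth is halved. TGI: total growth inhibition.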 A value given as a limit tells only on which side of the number the result lay.

For the test, the system named is NCI-H322M lung. The test can be described thus: inhibition of tumour cell growth, NCI panel, 48 h.
`CC(C)OP(=O)(OC(C)C)C(=NCCN=C(NNc1ccc([N+](=O)[O-])cc1)P(=O)(OC(C)C)OC(C)C)NNc1ccc([N+](=O)[O-])cc1` yielded a TGI greater than 100 µM.
Regarding `ClCc1cccc(Cn2cnc3ncnc(Cl)c32)c1`, the GI50 is 2.02 µM and the TGI came out at 3.46 µM.
As to `CC1=NN(c2cccc(Cl)c2)C2(C1=C/C=C/c1ccccc1)C(Cl)C(=O)N2c1nc2ccccc2s1` (stereo not given), the TGI was greater than 100 µM.
On the same count and under the same terms, as for `CCCCCCOc1ccc(C(=O)NOC)cc1`, the figure is greater than 100 µM; as for `O=C(O)c1ccccc1CC1Cc2ccccc2C1=O` (stereo not given), greater than 100 µM; as for `CCOP(=O)(OCC)C(c1ccc(F)cc1)N(C(=O)NC(F)(F)F)c1ccc(OC)cc1` (stereo not given), greater than 100 µM.
Take `Cc1c2c(nn1-c1ccc(S(=O)(=O)/N=C3\SCCC(=O)N3c3ccccc3)cc1)-c1ccccc1CC2`: the GI50 was 23.5 µM and the TGI is greater than 100 µM.
Molecule `CN(C)c1ccc(/C=C(\NC(=O)c2ccccc2)c2nc3ncncc3[nH]2)cc1` displayed a TGI greater than 100 µM.
For `CN(C(=O)c1ccc(C(F)(F)F)cc1)c1ccc(Oc2ccc3c(c2)cc(C(=O)N2CCN(Cc4ccc(OC(F)F)cc4)CC2)n3C)nc1`, the GI50 is greater than 100 µM and the TGI was greater than 100 µM.
Take `Cc1cc(/C=C/c2ccc3cc(N(C)C)ccc3[n+]2C)c(C)n1-c1ccccc1`: the GI50 is 0.926 µM and the TGI amounted to 7.38 µM.
`O=C1NCCN1/N=C/c1c(Cl)n(-c2ccccc2)c2ccccc12` gave a TGI of 64.8 µM.
In turn, `CN1CSC(=S)N(c2c3ccccc3nc3ccc(Br)cc23)C1` gave a TGI of 22.2 µM.
In turn, `CC(C)=Cc1cc(C(=O)Nc2ccc(Cl)c(Cl)c2)nc(N)n1` showed a TGI greater than 100 µM.
The same measure, in the same setting: for `CCCSCC(P(=O)(O)O)P(=O)(O)O` the value was greater than 100 µM.
Take `C=C1NC(=O)C(C(C)CC)NC(=O)C2CSCC(NC(=O)CCC(=O)O)C(=O)NC(Cc3ccccc3)C(=O)NC(C)C(=O)NC(CC(C)CC)C(=O)NC(C(=O)NC(Cc3ccccc3)C(=O)N3CCCC3C(=O)N2)C(C)OC(=O)C(CO)NC(=O)C(C(O)COC)N(C)C(=O)C(C(C)C)NC(=O)C(CC(C)CC)NC1=O` (stereo not given): the GI50 is 0.0346 µM and the TGI was greater than 6 µM.
The molecule `Cc1nc(N)c(N2CCN([N+](=O)[O-])CC2)c(=O)[nH]1` gave a TGI greater than 100 µM.
`Cc1ccc(C(=C2Sc3ccccc3S2)C(=C2Sc3ccccc3S2)c2ccc(C)s2)s1`: the TGI is greater than 100 µM.
`Oc1ccc([I+]c2ccccc2)cc1O`: the TGI is greater than 100 µM.
`O=S1(=O)OCCOS(=O)(=O)C1Br` had a TGI greater than 100 µM.
Consider `CC1CCC(C(=O)O)(C(Br)C(=O)O)CC1` (stereo not given), for which the TGI is greater than 100 µM.
The molecule `Cc1cc(O)c(/C=N/C(=S)NCc2ccccc2)c(=O)o1` yielded a TGI greater than 100 µM.
On to `O=C(CSc1ccc(Cl)cc1)Nc1ccc(-c2nc3ccccc3s2)c(Cl)c1`, for which the GI50 was 3.74 µM and the TGI was 33.2 µM.
Regarding `COc1cc(C2c3cc4c(cc3OC(NN)C2C)OCO4)cc(OC)c1OC` (stereo not given), the TGI is greater than 100 µM.
Turning to `O=C(O)CCC(=O)OC1N=C(c2ccccc2Cl)c2cc([N+](=O)[O-])ccc2NC1=O` (stereo not given), the TGI is greater than 100 µM.
As for `O=c1c2sccc2n(CC2COc3ccccc3O2)c(=O)n1O` (stereo not given), the GI50 is 28.4 µM and the TGI was greater than 100 µM.
As to `O=C1c2ccccc2-c2c1c(-c1ccc(F)cc1)nc1ccc3ccccc3c21`, the TGI is greater than 100 µM.
Take `COc1ncnc(NS(=O)(=O)c2ccc(N=C3C(=O)N(CN4CCN(c5c(F)cc6c(=O)c(C(=O)O)cn(C7CC7)c6c5OC)CC4C)c4ccc(Cl)cc43)cc2)c1OC` (stereo not given): the GI50 was 26.1 µM and the TGI is greater than 50 µM.
As for `CC(C)[C@H]1COC(=O)N1[C@@H]1C(=O)N([C@@H](CCC(=O)N2CCN(C3CCCC3)CC2)C(=O)N[C@@H]2CCCc3ccccc32)[C@@H]1/C=C/c1cccc(Br)c1`, the GI50 is 2.98 µM and the TGI was 13.4 µM.
In turn, `Cc1cc(C(=O)CCCCOc2ccc(C3=NCCO3)cc2)c(C)n1C` gave a TGI greater than 100 µM.
`COc1cccc2c(=O)oc(-c3ccc(C(C)(C)C)cc3)nc12` came in with a TGI greater than 100 µM.
The same measure, in the same setting: for `NS(=O)(=O)c1cc(Br)c(N=Nc2ccc(O)c3ncccc23)c(Br)c1` the value was greater than 100 µM; for `CC1=NN(c2cccc(Cl)c2)C2(SCC(=O)N2c2nc3ccccc3s2)/C1=C\c1ccccc1O` (stereo not given), greater than 100 µM.
As for `COC(OC)C(C)CC(=O)N(C)C` (stereo not given), the TGI was greater than 100 µM.
For `COc1ccc2c(c1)OCC1Cc3ccccc3OC21` (stereo not given), the TGI is greater than 100 µM.
Turning to `COc1cc(NCc2ccc3oc(=O)c(-c4ccccc4)nc3c2)cc(OC)c1OC`, the TGI is greater than 10 µM.
In turn, `CCN(CC)CCn1c(=O)c2cccnc2n2c3c(=O)n(C)c(=O)n(C)c3nc12` had a TGI greater than 100 µM.
As for `COc1ccc(NC(=O)CC(=O)N2N=C(N3c4ccccc4Sc4ccccc43)CC2c2ccccc2)cc1` (stereo not given), the TGI was greater than 100 µM.
For `O=C(/C=C/c1ccncc1)c1cc(Cl)ccc1O`, the GI50 was 18 µM and the TGI turned out to be 33.2 µM.
With `CCOC(=O)C(=C=C=C(c1ccccc1)c1ccccc1)C(=O)OCC`, the TGI was 90.7 µM.
The molecule `CCOC(=O)c1nc2c(nc1C(=O)OCC)C(=O)c1ccccc1C2=O` registered a TGI of 3.6 µM.
`O=C1OC(O)[C@@H]2[C@H]1[C@H]1CC[C@@H]2O1` (stereo not given in full): the GI50 was greater than 78.6 µM and the TGI is greater than 100 µM.
Taken in the same sequence, the figures for `COc1cc(/C=C2\CN(S(=O)(=O)c3ccccc3)C/C(=C\c3cc(CN4CCCC4)c(O)c(OC)c3)C2=O)cc(CN2CCCC2)c1O` were 1.43 µM and 2.84 µM.
The molecule `COc1cc2c(c(OC)c1OC)-c1ccc(OC)c(=O)cc1C(NC(=O)c1ccc(N=[N+]=[N-])cc1)CC2` (stereo not given) registered a TGI greater than 100 µM.
Turning to `CN(C)CCSC1=Nc2ccc(Cl)cc2C(c2ccccc2Cl)=NC1`, the GI50 is 17.4 µM and > 100 µM; the TGI was 37.4 µM and > 100 µM.
In turn, `NS(=O)(=O)c1cc2c(cc1Cl)NC(CCC(=O)O)=NS2(=O)=O` yielded a TGI greater than 100 µM.
Turning to `O=C(Nc1ccc(Cl)cc1)c1cccc(NC2=C(Cl)C(=O)N(Cc3ccccc3)C2=O)c1`, the GI50 is 25.7 µM and the TGI is greater than 100 µM.
As for `CN(C)c1nc(=Nc2ccc(N=c3nc(N(C)C)ss3)cc2)ss1`, the TGI is greater than 100 µM.
With `[O-][n+]1ccccc1Sc1nc(Sc2cccc[n+]2[O-])nc(Sc2cccc[n+]2[O-])n1`, the TGI is 27.1 µM.
Same read-out and setting: for `CC1=NS(=O)(=O)c2ccccc2N1` the value was greater than 100 µM.
The molecule `CS(=O)c1ncc2c(n1)-c1ccccc1OC2` (stereo not given) came in with a TGI greater than 100 µM.
Turning to `CS(=O)(=O)OCC(CCl)(CCl)CCl`, the TGI is greater than 100 µM.
`CC(C)C(C)/C=C\C(C)C1CCC2C3=CC=C4CC(O)CCC4(C)C3CCC21C` (stereo not given) displayed a TGI greater than 100 µM.
`COc1ccc2c(C)cc(=O)oc2c1OC` yielded a TGI greater than 100 µM.
The molecule `COC(=O)C1=C(C)NC(C)=C(C(=O)OCCCN2CCC(c3ccccc3)(c3ccccc3)CC2)C1c1cccc([N+](=O)[O-])c1` (stereo not given) returned a TGI of 3.43 µM.
For the molecule `OCc1ccc(-c2ccc(-c3ccc(CO)s3)o2)s1`, the TGI is 38.8 µM.
`CCCCC(C(=O)NCCNC(=O)CCC(=O)N(C)O)C(=O)NCCNC(=O)CCC(=O)N(C)O` showed a TGI greater than 100 µM.
Take `O=C(CCc1nnc2sc(-c3ccc(Cl)cc3Cl)nn12)c1nc2ncccc2[nH]1`: the GI50 is 2.94 µM and the TGI was determined as 12.4 µM.
Molecule `N=Nc1c(OC(=O)Nc2cccc(Cl)c2)[nH]c2ccccc12` returned a TGI of 23.3 µM.
As for `CC[C@H](Nc1ncnc2nc[nH]c12)c1oc2ccccc2c(=O)c1-c1cccc(F)c1`, the GI50 was 28.2 µM and the TGI is greater than 100 µM.

For the origin of these results see PubChem BioAssay (NCI).
